# Out of some 270,000 compounds screened, about 5,800 (2.1%) were called active. Inconclusive means that the source gave no clear call. Such entries were picked first, then a sample of the others. Calls follow the shape of the dose curve; as a rule, active = well fitted inhibition curve with a large enough effect; inconclusive = small, poorly fitted or top-dose-only effect; inactive = flat fitted curve, though single readings scatter. Potencies of inconclusive entries are doubtful fits and often do not repeat.
# Molecular target: Microtubule-associated protein tau (Homo sapiens) (UniProt P10636)
# UniProt P10636, sequence (P10636 whole entry, looked up): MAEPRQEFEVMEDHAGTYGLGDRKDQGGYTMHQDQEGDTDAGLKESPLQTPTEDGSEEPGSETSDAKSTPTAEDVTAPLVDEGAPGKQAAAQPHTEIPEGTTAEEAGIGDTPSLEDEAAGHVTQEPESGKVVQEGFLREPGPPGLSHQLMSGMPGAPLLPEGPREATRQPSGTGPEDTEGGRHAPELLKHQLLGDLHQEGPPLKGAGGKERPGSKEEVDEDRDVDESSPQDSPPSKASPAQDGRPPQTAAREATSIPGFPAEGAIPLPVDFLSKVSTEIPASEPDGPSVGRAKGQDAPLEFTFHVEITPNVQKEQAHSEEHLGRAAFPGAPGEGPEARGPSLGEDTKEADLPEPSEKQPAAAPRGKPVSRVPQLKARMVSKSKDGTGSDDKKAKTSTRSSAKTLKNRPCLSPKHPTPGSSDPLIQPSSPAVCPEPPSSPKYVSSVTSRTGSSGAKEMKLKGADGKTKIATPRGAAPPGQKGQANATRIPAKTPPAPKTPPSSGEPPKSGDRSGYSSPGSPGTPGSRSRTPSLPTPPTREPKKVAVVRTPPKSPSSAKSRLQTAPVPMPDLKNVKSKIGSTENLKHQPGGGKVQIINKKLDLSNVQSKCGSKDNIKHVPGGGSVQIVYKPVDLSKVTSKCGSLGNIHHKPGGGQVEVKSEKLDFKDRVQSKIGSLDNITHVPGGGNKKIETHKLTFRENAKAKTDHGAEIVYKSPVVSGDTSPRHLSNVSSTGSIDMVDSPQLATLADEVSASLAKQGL
# Assay: qHTS for Inhibitors of Tau Fibril Formation, Thioflavin T Binding; also: nearly all actives have a fitted effect of over 55% in size
# Conditions: recombinant tau K18 P301L (four-repeat tau fragment), heparin-induced fibrillization, ThT fluorescence; series mostly up to 57.4 µM; activity, negative = inhibition: at the top concentration
# How it was run: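 Tau K18 P301L fragment (15 uM unlabeled plus 0.24 uM Alexa 594-labeled) in 100 mM sodium acetate pH 7 with compound, fibrillization induced by 20 uM heparin for 6 hr at 37 C. Thioflavin T (30 uM) added, fluorescence read after 1 hr (ex 450, em 510 nm).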
# % is scaled to controls: 0 for no effect and ±100 for the full control effect; potency is read from the fitted curve at half-maximal effect; tags tell the direction and shape of the fitted curve.
SMILES,Potency,"activity, negative = inhibition"
COc1ccc(Nc2nc(Nc3ccc(OC)cc3OC)nc(N3CCOCC3)n2)c(OC)c1,"inconclusive: 0.316 µM [inhibitor, full curve]",
COc1cc(/C=C(\C#N)c2nc3ccccc3[nH]2)cc(Br)c1OCc1ccc(F)cc1,"inconclusive: 7.94 µM [inhibitor, partial curve]",
Cc1ccc2oc(-c3cccc(NC(=O)c4ccc(N5CCC(C)CC5)c([N+](=O)[O-])c4)c3)nc2c1,"inconclusive: 3.55 µM [inhibitor, full curve]",
CCCCNC(=O)CN1C(=O)c2c(c3ccccc3n2C)C1c1ccc(OC)cc1 (configuration not stated),,inactive: 9.01%
COc1ccc(-n2c(NC(=O)c3ccc(Br)o3)c(C#N)c3nc4ccccc4nc32)cc1,active: 14.1 µM,
CCOc1ccc(-c2nc(C#N)c(NC3CC3)o2)cc1,"inconclusive: 28.2 µM [inhibitor, single point]",
CN(Cc1ccco1)c1ncnc2ccc(-c3cccnc3)cc12,,inactive: 4.06%
CCCC(=O)Nc1ccc2c(c1)C(=O)N(CCC(=O)O)C2=O,,inactive: 5.48%
COc1ccc2[nH]cc(/C=N/NS(=O)(=O)c3ccc(C)cc3)c2c1,"inconclusive: 14.1 µM [inhibitor, partial curve]",
COCCn1c(SCC(=O)N2CCCc3ccccc32)nc2ccccc2c1=O,"inconclusive: 35.5 µM [inhibitor, single point]",
c1ccc(OCc2nnc3n2CCCCC3)cc1,,inactive: -1.19%
CN(C)c1ccc(C(=O)OCC(=O)NCCC2=CCCCC2)cc1,"inconclusive: 17.8 µM [inhibitor, single point]",
COc1ccc(-c2nc(C)c(CCNS(=O)(=O)c3ccc(F)cc3)s2)cc1OC,"inconclusive: 0.141 µM [inhibitor, full curve, poor fit]",
Cc1cccc(C2=NN(c3ccc(Br)cc3)[C@@H](C(=O)N3CCOC3=O)[C@@H]2c2ccc(F)cc2)c1,inactive,
COC(=O)c1ccn(-c2nc(-c3ccc(Cl)cc3)cc(C(F)(F)F)n2)n1,"inconclusive: 17.8 µM [inhibitor, partial curve]",
COc1ccc(C(C)=O)cc1CSc1nc(C)cc(C)n1,,inactive: 2.45%
Cc1ccc(C)c(-c2ccc(=O)n(Cc3c(F)cccc3Cl)n2)c1,"inconclusive: 22.4 µM [inhibitor, single point]",
O=C(Oc1ccc(C(=S)N2CCOCC2)cc1Br)c1cc(Cl)ccc1Cl,"inconclusive: 17.8 µM [inhibitor, partial curve, poor fit]",
CC1CCCC(NC(=O)C2c3ccccc3C(=O)N2Cc2cccs2)C1C (configuration not stated),,inactive: -3.03%
COc1ccc(NC(=O)CSc2nc(-c3cccc(C)c3)[nH]c2-c2ccccc2)cc1OC,"inconclusive: 11.2 µM [inhibitor, partial curve]",
CCCn1c(N)c(C(=O)CN2CCc3ccccc3C2)c(=O)n(C)c1=O,"inconclusive: 17.8 µM [inhibitor, partial curve, poor fit]",
CC(=O)N1CCc2c(sc3c2c(=O)n(CCc2ccccc2)c(=O)n3Cc2ccccc2C)C1,"inconclusive: 22.4 µM [inhibitor, partial curve]",
COCCN(CCOC)c1nc(C)nc2c1nc(-c1ccccc1)n2CCCN(C)C,,inactive: -0.945%
C=CC(C1=CC(=O)C(OC)=C(OC)C1=O)c1ccccc1 (configuration not stated),active: 12.6 µM,

SMILES,Potency,"activity, negative = inhibition"
Cc1cccc(C(=O)n2cnnc2N)c1,"inconclusive: 20 µM [inhibitor, single point]",
CC1=C(C(=O)Nc2ccc(Cl)cc2)C(c2ccccc2)n2ncc(C(=O)Nc3ccccc3)c2N1 (configuration not stated),,inactive: 13%
Cc1cccn2c(=O)c3cc(C#N)c(=O)n(-c4nnc(SCc5ccc(Cl)cc5)s4)c3nc12,"inconclusive: 3.55 µM [inhibitor, partial curve]",
COC(=O)COc1ccc(S(=O)(=O)Nc2ccccc2SC)cc1,,inactive: 0.159%
O=C(CCN1CCCCC1)NNC(=S)NC(=O)c1ccc(Br)cc1,,inactive: -7.94%
O=c1c(-c2ccccc2)c[nH]n1-c1cccc([N+](=O)[O-])c1,"inconclusive: 25.1 µM [inhibitor, partial curve]",
C/C(=C\C(=O)c1ccc(F)cc1)Nc1ccc(N2CCOCC2)cc1,active: 3.55 µM,
COc1ccc(-c2cn(-c3ccc(C)cc3)c(=O)n2CC(=O)Nc2ccc(OC)c(OC)c2)cc1,"inconclusive: 25.1 µM [inhibitor, partial curve, poor fit]",
O=C(CCCCCCCCC(=O)N/N=C/c1ccco1)N/N=C/c1ccco1,"inconclusive: 10 µM [inhibitor, partial curve, poor fit]",
CCC(=O)C1=C(c2ccc(C)cc2)N(C(=O)CC)n2c(nnc2C2CCCCC2)S1,"inconclusive: 17.8 µM [inhibitor, single point]",
CC(=O)N1CCc2cc(S(=O)(=O)NC(CC(C)C)C(=O)Nc3cc(C)cc(C)c3)ccc21 (configuration not stated),,inactive: -6.28%
Cc1ccc(NC(=O)/C=C/c2ccc([N+](=O)[O-])s2)c(C)c1,"inconclusive: 2.82 µM [inhibitor, full curve]",
Cc1ccc(CN(C(=O)COc2cc(C)c(Cl)c(C)c2)c2ccccn2)o1,,inactive: -15.8%
N=c1sccn1CC(=O)Nc1ccccc1-c1ccccc1,,inactive: -17.5%
Cc1[nH]c2ccccc2c1C(=O)CN1CCN(C2CCCCC2)CC1,,inactive: -9.39%
Cc1c(NC(=O)c2ccc3c(c2)OCO3)cccc1-c1nc2ncccc2o1,"inconclusive: 7.08 µM [inhibitor, partial curve]",
CC(C)CC1=NN(C(=O)c2ccco2)C(O)(C(F)(F)F)C1 (configuration not stated),,inactive: -8.93%
O=C(Oc1ccccc1F)c1nc(SCc2ccc(F)cc2)ncc1Cl,active: 20 µM,
COc1ccc(C(=O)Nc2cccc(/C=C(\CCC(=O)O)c3nc4ccccc4s3)c2)cc1,,inactive: -16.5%
CCOc1ccc(Nc2c(S(=O)(=O)c3ccccc3)cnc3ccc(F)cc23)cc1,"inconclusive: 1.41 µM [inhibitor, full curve, poor fit]",
COc1ccc(C2=CSC3=NNC4(CCCCC4)NN23)cc1,active: 22.4 µM,
Cc1ccccc1CNc1ccc(C(CC(N)=O)NC(=O)c2ccc(Br)cc2)cc1[N+](=O)[O-] (configuration not stated),"inconclusive: 7.94 µM [inhibitor, full curve, poor fit]",
c1ccc(Cn2nnnc2CN2CCN(Cc3ccc4c(c3)OCO4)CC2)cc1,,inactive: 3%
Cc1ccc(-c2cc3nc(-c4ccccc4)cc(C(F)(F)F)n3n2)cc1,,inactive: -7.29%

SMILES,Potency,"activity, negative = inhibition"
Cc1ccc(C(=O)OCC(=O)Nc2ccc(N(C)C)cc2)cc1NC(=O)c1ccco1,"inconclusive: 14.1 µM [inhibitor, partial curve]",
CCn1c(O)c(N=NC(=O)CNc2cccc(C)c2)c2ccccc21,"inconclusive: 28.2 µM [inhibitor, single point]",
COC(=O)CNc1c(-c2ccccn2)nc2ccc(Br)cn12,"inconclusive: 12.6 µM [inhibitor, partial curve]",
CN(C)c1ccc(NC(=O)N2CCOCC2)cc1,,inactive: 6.37%
CCOc1ccc(C=Nc2cccc3ncccc23)cc1,,inactive: -4.16%
CC(C)C[C@@H](CC(=O)N[C@@H](CCC(=O)O)CC(=O)O)NC(=O)[C@@H]1CCCC[C@H]1NC(=O)C[C@H](CCCN)NC(=O)C[C@H](Cc1ccccc1)NC(=O)[C@@H]1CNCC[C@H]1N,,inactive: -3.06%
CC(C)Sc1ncc(Cl)c(C(=O)Nc2ccc(S(=O)(=O)N3CCCCC3)cc2)n1,,inactive: -3.82%
O=C(CC1CC2CCC1C2)Nc1nc(-c2ccccn2)cs1 (configuration not stated),"inconclusive: 20 µM [inhibitor, partial curve]",
CC(C)c1noc(-c2ccccc2OCC(=O)Nc2cccc([N+](=O)[O-])c2)n1,,inactive: -11.8%
CCCCCCCCCCCCCCC[C@@H](O)[C@@H](N)CO,"inconclusive: 39.8 µM [inhibitor, single point]",
COc1cc(C)c(/C=C/C(C)=C/C=C/C(C)=C/C(=O)O)c(C)c1C,active: 25.1 µM,
COc1ccccc1/C=C/C(=O)N1CCC(c2ccccc2)C1 (configuration not stated),"inconclusive: 17.8 µM [inhibitor, partial curve]",
Cc1sc2ncnc(N/N=C/c3ccccc3O)c2c1C,"inconclusive: 12.6 µM [inhibitor, partial curve]",
Cc1cc(C)c2sc(N3CCN(C(=O)c4ccc(N(C)C)cc4)CC3)nc2c1,"inconclusive: 14.1 µM [inhibitor, single point]",
CC(C)Cn1c(N)c(C(=O)NCc2cccs2)c2nc3ccccc3nc21,"inconclusive: 31.6 µM [inhibitor, partial curve]",
Cc1cc(C)cc(OCc2nnc(SCC(=O)c3ccc(Br)cc3)o2)c1,"inconclusive: 12.6 µM [inhibitor, partial curve]",
Cn1nc(-c2ccccc2F)c2cc(C(=O)Nc3ccc4c(c3)OCCO4)sc21,"inconclusive: 2.51 µM [inhibitor, full curve]",
S=C1NC2CCCCC2N1 (configuration not stated),,inactive: -2.03%
CCOc1ccc(C(=O)Nc2ccc3oc(-c4ccc5ccccc5c4)nc3c2)cc1,"inconclusive: 2.51 µM [inhibitor, full curve]",
CC1(C)CC(=O)C2=C(C1)N(Cc1ccco1)C(=O)C2(NC(=O)c1ccc(Cl)cc1Cl)C(F)(F)F (configuration not stated),,inactive: -7.04%
COc1ccc(NC(=O)Cn2c(=O)n(Cc3ccccc3)c(=O)c3sc4ccccc4c32)cc1,,inactive: 0.908%
C/C(=N\Nc1ncc(Cl)cc1Cl)c1ccc(C#N)cc1,"inconclusive: 31.6 µM [inhibitor, single point]",
COC(=O)c1ccc2nc(-c3ccc(S(C)(=O)=O)cc3)cn2c1,,inactive: -12.8%
COc1ccc(C(=O)CC(=O)c2ccccc2O)cc1OC,"inconclusive: 22.4 µM [inhibitor, partial curve]",

# — PubChem BioAssay AID1460 (National Center for Advancing Translational Sciences (NCATS), 2008)
